From article PMC4336329 (PLoS ONE, 2015) come the findings set out here.

Among all 310,000 compounds or so, about 14,000 (4.5%) showed an effect of 50% or more. Effects have a minus sign here. This is one part of the list.
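Note: peak tail current of the secondary pulse compared with the same well before compound.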

The target of the experiment is human ether-à-go-go-related gene (hERG) potassium channel (human, UniProt Q12809). The experiment in a line: primary screen, population patch clamp on CHO cells stably expressing hERG.
Sequence of human ether-à-go-go-related gene (hERG) potassium channel (Q12809 whole entry, looked up): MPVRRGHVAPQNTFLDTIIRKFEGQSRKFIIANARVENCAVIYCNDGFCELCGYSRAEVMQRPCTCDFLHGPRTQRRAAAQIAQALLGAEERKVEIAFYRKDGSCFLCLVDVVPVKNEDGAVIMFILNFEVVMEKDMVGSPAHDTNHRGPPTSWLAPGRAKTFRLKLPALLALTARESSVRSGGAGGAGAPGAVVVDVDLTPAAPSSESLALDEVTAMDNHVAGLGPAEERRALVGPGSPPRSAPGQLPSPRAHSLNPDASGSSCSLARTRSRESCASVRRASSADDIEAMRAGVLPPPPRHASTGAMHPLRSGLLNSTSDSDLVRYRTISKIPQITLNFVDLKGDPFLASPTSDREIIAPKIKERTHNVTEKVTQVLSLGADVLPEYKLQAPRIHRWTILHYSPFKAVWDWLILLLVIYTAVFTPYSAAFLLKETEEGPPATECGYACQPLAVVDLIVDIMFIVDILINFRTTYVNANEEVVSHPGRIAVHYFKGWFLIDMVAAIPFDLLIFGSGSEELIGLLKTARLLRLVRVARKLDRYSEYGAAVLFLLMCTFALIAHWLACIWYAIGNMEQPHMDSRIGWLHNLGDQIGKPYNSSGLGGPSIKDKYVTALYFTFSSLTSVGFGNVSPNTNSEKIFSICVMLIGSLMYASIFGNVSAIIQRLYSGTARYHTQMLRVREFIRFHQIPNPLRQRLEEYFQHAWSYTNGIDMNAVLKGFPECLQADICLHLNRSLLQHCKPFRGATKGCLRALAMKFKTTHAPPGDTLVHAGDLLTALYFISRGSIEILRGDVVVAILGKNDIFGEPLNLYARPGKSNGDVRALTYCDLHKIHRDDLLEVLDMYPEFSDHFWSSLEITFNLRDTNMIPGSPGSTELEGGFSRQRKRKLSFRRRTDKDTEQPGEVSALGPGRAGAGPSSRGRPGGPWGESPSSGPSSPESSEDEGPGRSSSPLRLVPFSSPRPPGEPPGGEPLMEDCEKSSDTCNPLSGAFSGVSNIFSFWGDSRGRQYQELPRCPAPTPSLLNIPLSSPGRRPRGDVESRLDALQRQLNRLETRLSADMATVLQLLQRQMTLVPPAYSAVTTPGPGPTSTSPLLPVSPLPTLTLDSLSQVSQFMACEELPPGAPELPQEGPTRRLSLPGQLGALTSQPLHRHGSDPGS
For `O=C(c1ccco1)N1CCN(CCCCN2C(=O)c3ccccc3C2=O)CC1`, the “hERG current change (%, negative = inhibition) at 10uM” value was -40%. The same measure for `O=[N+]([O-])c1ccc(CN2CCN(c3nc4ccccc4s3)CC2)cc1`: -1.07%; for `CC(C)(C)NC(=O)c1ccccc1NC(=O)C1CC(=O)N(C2CCCCC2)C1` (centres unmarked): 2.85%.

As for `O=C(NCCc1ccc(Cl)cc1)C1CCC(CNc2nc(=S)[nH]c3ccccc23)CC1` (centres unmarked), the “hERG current change (%, negative = inhibition) at 10uM” value is on record as -3.48%. Regarding `COc1cc(C(=O)NCC2CCCO2)ccc1OCc1ccc(Cl)cc1` (centres unmarked), the “hERG current change (%, negative = inhibition) at 10uM” value is -1.43%. As for `CCOC(=O)N1CCN(C(=O)CS(=O)(=O)c2cn(Cc3ccc(Cl)cc3)c3ccccc23)CC1`, the “hERG current change (%, negative = inhibition) at 10uM” value was -39.3%. Take `COc1ccc(-n2nc(C(=O)NCC(=O)N3CC(C)CC(C)C3)c3ccccc3c2=O)cc1` (centres unmarked): the “hERG current change (%, negative = inhibition) at 10uM” value is 1.45%. To `C/C(=N\Nc1nc2ccccc2[nH]1)c1ccc([N+](=O)[O-])cc1` belongs 10.9%. With `CCOC(=O)NCN1C(=O)C2C3C=CC(C3)C2C1=O` (centres unmarked), the “hERG current change (%, negative = inhibition) at 10uM” value is -11.9%. To `CCCNC(=O)CS(=O)Cc1nc(-c2ccccc2C)oc1C` (centres unmarked) belongs 6.71%.

With `Cc1ccc(S(=O)(=O)CCC(=O)OCc2ccccc2)cc1`, the “hERG current change (%, negative = inhibition) at 10uM” value is 8.36%.

For the molecule `Cc1cc(-n2c(C)cc(C(=O)CN3C(=O)NC4(CCCCCC4)C3=O)c2C)no1`, the “hERG current change (%, negative = inhibition) at 10uM” value was -4.62%. To `Cc1cccc2c1cnn2C(=O)Nc1cc(F)ccc1F` belongs 16.5%; to `Cc1sc2nc(C(C)(C)C)oc(=O)c2c1C`, 4.72%; to `O=C(CN1C(=O)c2cccc3cccc1c23)NCc1ccc2c(c1)OCO2`, -13.2%.

Regarding `CCc1nc(C(N)=O)c2[nH]c(=O)n(-c3ccc(OC)cc3OC)c2n1`, the “hERG current change (%, negative = inhibition) at 10uM” value turned out to be 13.5%. For the molecule `Cc1ccc(C(C[N+](=O)[O-])c2c(C)[nH]n(-c3ccccc3)c2=O)cc1` (centres unmarked), the “hERG current change (%, negative = inhibition) at 10uM” value is on record as -4.88%.

For `O=C(OCC(=O)N1CCCC1)c1cccs1`, the “hERG current change (%, negative = inhibition) at 10uM” value was determined as 16.2%. Regarding `Cc1ccccc1NC(=O)CCN1CCc2ccccc2C1`, the “hERG current change (%, negative = inhibition) at 10uM” value is given as -0.685%. The same measure for `CCc1ccc(OCC(O)CN2CCCC2)cc1.Cl` (centres unmarked): -13.8%; for `Cc1nn(C(C)C(=O)NCCc2ccco2)c(=O)c2nn(-c3ccccc3)c(C)c12` (centres unmarked): 10.6%. The same measure for `CCS(=O)(=O)n1nc(-c2ccc(Cl)cc2)nc1SCc1ccccc1`: -3.32%; for `CCC(=O)N1c2ccc(S(=O)(=O)N3CCCCC3)cc2CC1C` (centres unmarked): 17.8%.

Take `CC(C)(C)OC(=O)NN1CC(=O)N2Cc3[nH]c4ccccc4c3C[C@H]2C1=O`: the “hERG current change (%, negative = inhibition) at 10uM” value is recorded as -1.3%. To `O=C(Nc1ccc(Oc2ccc(NC(=O)C3CCCO3)cc2)cc1)C1CCCO1` (centres unmarked) belongs 13.5%; to `O=C(Nc1ccc(-c2cnco2)cc1)c1ccccc1`, 13.8%.

`COc1ccc2oc(C(=O)OCC(=O)NCc3ccccc3OC)c(C)c2c1`: the “hERG current change (%, negative = inhibition) at 10uM” value stood at 20%.

On to `CC(=O)c1ccc(N2CCN(S(=O)(=O)c3c(C(=O)N4CCCCC4)c(C)n(C)c3C)CC2)cc1`, for which the “hERG current change (%, negative = inhibition) at 10uM” value is reported as -2.75%.

As for `O=C(O)C(CO)N=Cc1c(O)c2ccccc2oc1=O` (centres unmarked), the “hERG current change (%, negative = inhibition) at 10uM” value is 14%. The same measure for `COc1ccc(Cc2nc(N)nc(N)n2)cc1`: 6.61%; for `CCc1ccccc1N1C(=O)CN(Cc2cc(OC)c(OC)c(OC)c2)C1=S`: 13.9%; for `Cn1c(SCC(=O)NC(=O)CN2CCCC2=O)nnc1-c1ccc(F)cc1`: -1.09%.

On to `O=P(c1ccccc1)(c1ccccc1)C(c1ccccn1)P(=O)(c1ccccc1)c1ccccc1`, for which the “hERG current change (%, negative = inhibition) at 10uM” value amounted to 3.19%.

Regarding `COc1cc(CNCc2cccs2)ccc1OCC(=O)NC(C)(C)C.Cl`, the “hERG current change (%, negative = inhibition) at 10uM” value was -4.1%. Consider `CC1(c2ccc(Cl)cc2)NC(=O)N(CC(=O)NCCC2=CCCCC2)C1=O` (centres unmarked), for which the “hERG current change (%, negative = inhibition) at 10uM” value was -2.42%. As for `CCOc1cccc(/C=N/NC(=O)C2CCCC2)c1O`, the “hERG current change (%, negative = inhibition) at 10uM” value is on record as 11.1%. To `O=S(=O)(c1ccc(Oc2ccc(S(=O)(=O)N(CCO)CCO)cc2)cc1)N(CCO)CCO` belongs 18.6%; to `CC(=O)N/C(=C/c1ccc2c(c1)OCO2)C(=O)N1CCOCC1`, -9.95%. The same measure for `CC(C)NC(=O)CSc1nnc(-c2ccco2)n1N`: 14.4%; for `COCC1CCCN(Cc2cn(Cc3ccccc3)nc2-c2cc3ccccc3o2)C1` (centres unmarked): -72.8%; for `Cc1sc2ncnc(NCCCn3ccnc3)c2c1C`: -46.1%. To `CCC(C)[C@H](NC(=O)NCCCc1ccccc1)C(=O)OC` (some centres unmarked) belongs -12.9%. As to `C#CCOCCOCCOCCNc1nc(N2CCN(C(=O)CCCCCCCCCCNC(=O)[C@H]([C@@H](C)CC)n3cc(CCCCCN)nn3)CC2)nc(N2CCN(C(=O)CCCCCCCCCCNC(=O)[C@H](CO)n3cc(CCCCCN)nn3)CC2)n1`, the “hERG current change (%, negative = inhibition) at 10uM” value is on record as -3.99%. To `CCNC(=O)C1CCCN1S(=O)(=O)c1ccc(OC)cc1` (centres unmarked) belongs 17.6%.
